Results as given in publication PMC3791464 (eLife, 2013).
Results are given in words; binding and its absence hold for the method and conditions named. In cells and extracts the contact can be indirect. Some binding calls cover weakened binding; strength is not graded here. Tags and fused reporters may be left off the sequences shown.

T1: Drosophila MBP–Orc3, full-length (Drosophila melanogaster) (UniProt Q7K2L1)
T1 sequence: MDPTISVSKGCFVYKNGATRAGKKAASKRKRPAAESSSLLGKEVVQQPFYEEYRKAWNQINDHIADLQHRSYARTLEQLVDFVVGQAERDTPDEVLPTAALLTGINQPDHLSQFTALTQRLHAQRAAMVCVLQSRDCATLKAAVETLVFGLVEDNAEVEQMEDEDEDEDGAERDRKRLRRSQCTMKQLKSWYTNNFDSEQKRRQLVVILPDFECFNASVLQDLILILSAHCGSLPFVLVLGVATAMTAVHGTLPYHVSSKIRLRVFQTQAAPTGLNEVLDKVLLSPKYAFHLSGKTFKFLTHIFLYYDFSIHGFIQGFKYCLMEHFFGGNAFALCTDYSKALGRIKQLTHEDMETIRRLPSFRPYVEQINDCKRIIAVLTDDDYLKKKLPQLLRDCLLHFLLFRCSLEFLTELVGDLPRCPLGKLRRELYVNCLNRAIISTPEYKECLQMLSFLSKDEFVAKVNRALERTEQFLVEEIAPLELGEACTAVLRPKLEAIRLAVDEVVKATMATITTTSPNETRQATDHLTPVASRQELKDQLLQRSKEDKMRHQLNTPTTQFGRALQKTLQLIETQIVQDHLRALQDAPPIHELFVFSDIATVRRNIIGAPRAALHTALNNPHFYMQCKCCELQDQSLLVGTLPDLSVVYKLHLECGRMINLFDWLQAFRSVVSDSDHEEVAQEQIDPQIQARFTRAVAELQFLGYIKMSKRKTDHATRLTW

T2: Drosophila MBP–Orc3 insertion (residues 371–559) (Drosophila melanogaster) (UniProt Q7K2L1)
T2 sequence: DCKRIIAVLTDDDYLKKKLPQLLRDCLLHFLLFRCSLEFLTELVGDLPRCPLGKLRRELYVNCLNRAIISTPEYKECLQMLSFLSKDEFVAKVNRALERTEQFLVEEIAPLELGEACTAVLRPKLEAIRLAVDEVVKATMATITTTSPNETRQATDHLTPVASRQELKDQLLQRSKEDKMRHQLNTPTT

T3: S. cerevisiae MBP–Orc1 (S. cerevisiae) (UniProt P54784)
T3 sequence: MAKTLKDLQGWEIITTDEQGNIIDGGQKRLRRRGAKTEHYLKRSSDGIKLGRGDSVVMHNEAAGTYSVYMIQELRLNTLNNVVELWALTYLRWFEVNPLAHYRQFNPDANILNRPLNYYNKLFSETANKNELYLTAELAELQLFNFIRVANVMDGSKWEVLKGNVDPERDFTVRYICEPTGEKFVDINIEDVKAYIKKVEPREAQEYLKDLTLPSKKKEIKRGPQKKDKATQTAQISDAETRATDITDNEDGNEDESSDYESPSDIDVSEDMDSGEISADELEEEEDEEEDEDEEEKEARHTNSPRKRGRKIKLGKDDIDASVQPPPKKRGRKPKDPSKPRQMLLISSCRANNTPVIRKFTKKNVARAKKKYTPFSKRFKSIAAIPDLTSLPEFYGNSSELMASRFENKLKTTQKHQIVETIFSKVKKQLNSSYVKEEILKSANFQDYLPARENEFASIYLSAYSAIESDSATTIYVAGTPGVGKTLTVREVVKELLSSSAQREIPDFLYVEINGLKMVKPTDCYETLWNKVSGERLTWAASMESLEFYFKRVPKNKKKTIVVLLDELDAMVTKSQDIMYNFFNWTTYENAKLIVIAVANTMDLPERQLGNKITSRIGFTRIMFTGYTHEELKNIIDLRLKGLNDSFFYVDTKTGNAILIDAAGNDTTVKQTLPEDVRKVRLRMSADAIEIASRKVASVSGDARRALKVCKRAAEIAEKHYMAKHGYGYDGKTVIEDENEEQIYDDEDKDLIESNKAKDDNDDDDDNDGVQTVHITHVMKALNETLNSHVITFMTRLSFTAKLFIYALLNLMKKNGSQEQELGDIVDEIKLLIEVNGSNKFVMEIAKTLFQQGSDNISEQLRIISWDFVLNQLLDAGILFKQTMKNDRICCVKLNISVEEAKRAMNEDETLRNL


Assays:
Test in all cases: pull-down; N-terminally MBP-tagged bait and N-terminally 6×His-tagged prey (with further ORC subunits where named) co-expressed in High5 cells by baculovirus co-infection; clarified lysate (50 mM Tris HCl pH 7.8, 300 mM KCl, 10% glycerol, 1 mM DTT; 0.78 M ammonium sulfate step) on amylose beads, three washes; Coomassie-stained SDS-PAGE, anti-His Western blot for some preys
[1] = biological target: T1, Drosophila MBP–Orc3, full-length (Drosophila melanogaster)
[2] = biological target: T2, Drosophila MBP–Orc3 insertion (residues 371–559) (Drosophila melanogaster)
[3] = biological target: T3, S. cerevisiae MBP–Orc1 (S. cerevisiae)

Row | Binder | binding [1] | binding [2] | binding [3]
1 | Drosophila Orc6 94–257, N-terminal 6×His (domain or fragment, UniProt Q9Y1B2 94-257) KLASVNDICVQLGLNEVARKAEELMTLFKGVAATEDMGTDTSHPQYATMAVFQACRLLKKKVSKSKLMPFSNLRPSQFQLLEQQWERMIAKHHKESKVPSSTDMEGKLKENQNENIKGHEAKKAHKPPPEDYEIWKARMLAKAQAKLKELEASQSHMDSQLLEA | binds | binds | 
2 | Drosophila Orc2 in untagged recombinant ORC (natural protein, Drosophila melanogaster, UniProt Q24168 1-618, looked up, Drosophila Orc2, no purification tag; source: High5 cells co-infected with six baculoviruses, co-purified (Ni, amylose, TEV, gel filtration)) MSASNKGGYKTPRKENLMSIENLTNSEEESEDLNTAMVGNAVESQPKVTSRRSTRRPSPTKKYQAYQKESNGKGQEERIVVNYVEMSDERSSDAEDQEEEESIEESENAARPAAKDLHLIQSEYNVAGTSMFGFNTPKKRDAMALAALNATPCTPKTPKTPRLGVKTPDTKRKKSMDQPKTPAHVRTRVKKQIAKIVADSDEDFSGDESDFRPSDEESSSSSSSSDAGNSSDNDAADDEPKTPSRARRAIVVPVLPKTPSAARLRQSARAKKSNEFVPESDGYFHSHASSKILTSDHTLDRLKNPRLAADRVFSLLSEIKTSAEHEGSINAIMEEYRSYFPKWMCILNEGFNILLYGLGSKHQLLQSFHREVLHKQTVLVVNGFFPSLTIKDMLDSITSDILDAGISPANPHEAVDMIEEEFALIPETHLFLIVHNLDGAMLRNVKAQAILSRLARIPNIHLLASIDHINTPLLWDQGKLCSFNFSWWDCTTMLPYTNETAFENSLLVQNSGELALSSMRSVFSSLTTNSRGIYMLIVKYQLKNKGNATYQGMPFRDLYSSCREAFLVSSDLALRAQLTEFLDHKLVKSKRSVDGSEQLTIPIDGALLQQFLEEQEKK | binds | no binding | 
3 | Drosophila Orc6 1–232, N-terminal 6×His (domain or fragment, UniProt Q9Y1B2 1-232, Alexa Fluor 488 on the N-terminus (only in the fluorescence anisotropy assay)) MTTLIEQLITKMGLREEPNVLEKTTELVRLLELRSTNVPLQINEYGKIVLCADLASCMIGIAFDKEQALKLSGLRKSQYLNNKRMFEKLLDLNKLASVNDICVQLGLNEVARKAEELMTLFKGVAATEDMGTDTSHPQYATMAVFQACRLLKKKVSKSKLMPFSNLRPSQFQLLEQQWERMIAKHHKESKVPSSTDMEGKLKENQNENIKGHEAKKAHKPPPEDYEIWKARM | no binding | no binding | 
4 | Drosophila Orc6 1–200, N-terminal 6×His (domain or fragment, UniProt Q9Y1B2 1-200, Alexa Fluor 488 on the N-terminus (only in the fluorescence anisotropy assay)) MTTLIEQLITKMGLREEPNVLEKTTELVRLLELRSTNVPLQINEYGKIVLCADLASCMIGIAFDKEQALKLSGLRKSQYLNNKRMFEKLLDLNKLASVNDICVQLGLNEVARKAEELMTLFKGVAATEDMGTDTSHPQYATMAVFQACRLLKKKVSKSKLMPFSNLRPSQFQLLEQQWERMIAKHHKESKVPSSTDMEGK | no binding | no binding | 
5 | Drosophila Orc6 147–257, N-terminal 6×His (domain or fragment, UniProt Q9Y1B2 147-257) ACRLLKKKVSKSKLMPFSNLRPSQFQLLEQQWERMIAKHHKESKVPSSTDMEGKLKENQNENIKGHEAKKAHKPPPEDYEIWKARMLAKAQAKLKELEASQSHMDSQLLEA | binds | binds | 
6 | Drosophila Orc6 1–220, N-terminal 6×His (domain or fragment, UniProt Q9Y1B2 1-220, Alexa Fluor 488 on the N-terminus (only in the fluorescence anisotropy assay)) MTTLIEQLITKMGLREEPNVLEKTTELVRLLELRSTNVPLQINEYGKIVLCADLASCMIGIAFDKEQALKLSGLRKSQYLNNKRMFEKLLDLNKLASVNDICVQLGLNEVARKAEELMTLFKGVAATEDMGTDTSHPQYATMAVFQACRLLKKKVSKSKLMPFSNLRPSQFQLLEQQWERMIAKHHKESKVPSSTDMEGKLKENQNENIKGHEAKKAHKP | no binding | no binding | 
7 | Drosophila Orc6-Y225S, N-terminal 6×His (protein, UniProt Q9Y1B2 1-257, Alexa Fluor 488 on the N-terminus (only in the fluorescence anisotropy assay)) MTTLIEQLITKMGLREEPNVLEKTTELVRLLELRSTNVPLQINEYGKIVLCADLASCMIGIAFDKEQALKLSGLRKSQYLNNKRMFEKLLDLNKLASVNDICVQLGLNEVARKAEELMTLFKGVAATEDMGTDTSHPQYATMAVFQACRLLKKKVSKSKLMPFSNLRPSQFQLLEQQWERMIAKHHKESKVPSSTDMEGKLKENQNENIKGHEAKKAHKPPPEDSEIWKARMLAKAQAKLKELEASQSHMDSQLLEA | binds weakly |  | 
8 | Drosophila Orc6, full-length (1–257), N-terminal 6×His (natural protein, Drosophila melanogaster, UniProt Q9Y1B2 1-257, looked up, Alexa Fluor 488 on the N-terminus (only in the fluorescence anisotropy assay), Drosophila Orc6, residues 1-257; also called wild-type Orc6; Orc6 WT; source: High5 cells (baculovirus): in lysate of co-infected cells; also purified (HisTrap, gel filtration); not shown: 6×His, N-terminal, kept) MTTLIEQLITKMGLREEPNVLEKTTELVRLLELRSTNVPLQINEYGKIVLCADLASCMIGIAFDKEQALKLSGLRKSQYLNNKRMFEKLLDLNKLASVNDICVQLGLNEVARKAEELMTLFKGVAATEDMGTDTSHPQYATMAVFQACRLLKKKVSKSKLMPFSNLRPSQFQLLEQQWERMIAKHHKESKVPSSTDMEGKLKENQNENIKGHEAKKAHKPPPEDYEIWKARMLAKAQAKLKELEASQSHMDSQLLEA | binds | binds | 
9 | Drosophila Orc6-W228A/K229A, N-terminal 6×His (protein, UniProt Q9Y1B2 1-257, Alexa Fluor 488 on the N-terminus (only in the fluorescence anisotropy assay)) MTTLIEQLITKMGLREEPNVLEKTTELVRLLELRSTNVPLQINEYGKIVLCADLASCMIGIAFDKEQALKLSGLRKSQYLNNKRMFEKLLDLNKLASVNDICVQLGLNEVARKAEELMTLFKGVAATEDMGTDTSHPQYATMAVFQACRLLKKKVSKSKLMPFSNLRPSQFQLLEQQWERMIAKHHKESKVPSSTDMEGKLKENQNENIKGHEAKKAHKPPPEDYEIAAARMLAKAQAKLKELEASQSHMDSQLLEA | no binding | no binding | 
10 | Drosophila Orc6 C-terminal domain (187–257), N-terminal 6×His (domain or fragment, Drosophila melanogaster, UniProt Q9Y1B2 187-257, looked up, Alexa Fluor 488 on the N-terminus (only in the fluorescence anisotropy assay), Drosophila Orc6, residues 187-257 (C-terminal domain); not detected in Western blots of whole-cell extract, but seen in the pull-downs; also called Orc6 187–257; Orc6 CTD; source: High5 cells (baculovirus): in lysate of co-infected cells; also purified (HisTrap, gel filtration); not shown: 6×His, N-terminal, kept) KESKVPSSTDMEGKLKENQNENIKGHEAKKAHKPPPEDYEIWKARMLAKAQAKLKELEASQSHMDSQLLEA | binds | binds | 
11 | S. cerevisiae Orc3 co-expressed with the other ORC subunits (protein, UniProt P54790 1-616) MSDLNQSKKMNVSEFADAQRSHYTVYPSLPQSNKNDKHIPFVKLLSGKESEVNVEKRWELYHQLHSHFHDQVDHIIDNIEADLKAEISDLLYSETTQKRRCFNTIFLLGSDSTTKIELKDESSRYNVLIELTPKESPNVRMMLRRSMYKLYSAADAEEHPTIKYEDINDEDGDFTEQNNDVSYDLSLVENFKRLFGKDLAMVFNFKDVDSINFNTLDNFIILLKSAFKYDHVKISLIFNINTNLSNIEKNLRQSTIRLLKRNYHKLDVSSNKGFKYGNQIFQSFLDTVDGKLNLSDRFVEFILSKMANNTNHNLQLLTKMLDYSLMSYFFQNAFSVFIDPVNVDFLNDDYLKILSRCPTFMFFVEGLIKQHAPADEILSLLTNKNRGLEEFFVEFLVRENPINGHAKFVARFLEEELNITNFNLIELYHNLLIGKLDSYLDRWSACKEYKDRLHFEPIDTIFQELFTLDNRSGLLTQSIFPSYKSNIEDNLLSWEQVLPSLDKENYDTLSGDLDKIMAPVLGQLFKLYREANMTINIYDFYIAFRETLPKEEILNFIRKDPSNTKLLELAETPDAFDKVALILFMQAIFAFENMGLIKFQSTKSYDLVEKCVWRGI |  |  | binds
